Measured values reported in PubChem BioAssay AID1671194 (National Center for Advancing Translational Sciences (NCATS), 2021).
Screen size: about 140,000 compounds; about 240 (0.17%) were called active. The inconclusive results got no clear call from the source; some entries with a clear call stand among them for comparison. The call rests on the fitted dose curve; in most records, active means well fitted inhibition curve with a large enough effect; inconclusive means small, poorly fitted or top-dose-only effect; inactive means no such curve, though single readings can be large or run the other way. Potencies of inconclusive entries are doubtful fits and often do not repeat.

Assay: Primary qHTS assay for inhibitors of alpha-synuclein gene (SNCA) expression; further: nearly all actives have a fitted effect of over 45% in size;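 on activity change, negative = inhibition: plate controls were DMSO cells for no effect and cell-free wells for full effect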
Details: HEK-293 SNCA-luciferase knock-in, luminescence, 24 h; activity change, negative = inhibition: at 57.2 µM (top of the series) unless noted
Potency means the concentration at half of the fitted maximal effect; tags describe the fitted curve by direction and shape.

Potency, inactive:
COCCNC(=O)c1ccc2nnc(Cc3ccco3)n2c1

Potency, inconclusive:
CCN(CC)C(=O)c1sc2c(c1C)c(=O)n(-c1ccc(C)c(C)c1)c(=O)n2CC(=O)Nc1ccc(OC)cc1OC 3.55 µM [inhibitor, single point]
Cc1ccn2c(=O)cc(COc3ccc(NC(=O)C(C)(C)C)cc3)nc2c1 1 µM [inhibitor, partial curve, poor fit]
CCc1noc(CC2CCOC3(CCN(S(=O)(=O)c4cc(F)ccc4F)CC3)C2)n1 (configuration not stated) 39.8 µM [inhibitor, single point]
CC(C)Oc1ccc(CNC(=O)CN2C(=O)c3cccnc3Oc3ccc(Cl)cc32)cc1 4.47 µM [inhibitor, partial curve, poor fit]
COc1ccc(CNC(=O)C2CCN(C(=O)c3cnn(-c4ccccc4)c3-n3cccc3)CC2)cc1 0.178 µM [inhibitor, partial curve, poor fit]
Cc1ccc(C(=O)N2CCN(c3cccc(Cl)c3)CC2)cc1-n1c(C)nc2cccnc21 17.8 µM [inhibitor, single point]
OC1(c2csc(CN3CCc4ccccc4C3)n2)CCN(C2CCC2)CC1 11.2 µM [inhibitor, single point]
COc1ccccc1N1CCN(C(=O)C(OC)c2ccccc2)CC1=O (configuration not stated) 3.16 µM [inhibitor, single point]
COc1ccc(-c2noc(-c3cccn3CC(=O)Nc3cccc(Cl)c3C)n2)cc1F 39.8 µM [inhibitor, single point]
COc1ccc(S(=O)(=O)c2cc3cc(C(C)(C)C)cc(O)c3oc2=O)cc1 28.2 µM [inhibitor, single point]
CCOC(=O)c1cn(C2CN(S(=O)(=O)Cc3ccccc3)C2)nn1 8.91 µM [inhibitor, single point]
CC(C)(CC(=O)NCc1ccc(Cl)cc1Cl)CC1=NS(=O)(=O)c2ccccc2N1 35.5 µM [inhibitor, single point]
COC(=O)CNC(=O)N1CC(c2nnc(-c3ccncc3)o2)C2(CCOCC2)C1 (configuration not stated) 1.58 µM [inhibitor, partial curve, poor fit]
COc1cccc(Cn2c(=O)c(-c3ccc(Cl)cc3)nc3cncnc32)c1 39.8 µM [inhibitor, single point]
CC1=Nc2cc(C(=O)NC3CCCC3)ccc2Sc2ccc(Br)cc21 20 µM [inhibitor, partial curve, poor fit]
CCNc1ncc(C(=O)N[C@H](c2cccs2)C2CC(O)C2)cn1 (some centres not stated) 8.91 µM [inhibitor, single point]
Cc1cccc(-c2cccc(CN3CCC(NC(=O)NC(C)C)CC3)c2)c1 39.8 µM [inhibitor, single point]
CSc1cccc(Nc2cc(C(=O)NCCCN(Cc3ccccc3)C(C)C)c3ccccc3n2)c1 39.8 µM [inhibitor, single point]
CCCCNC(=O)c1ccc2c(c1)n(Cc1ccc(F)cc1)c(=O)c1ccnn12 39.8 µM [inhibitor, partial curve, poor fit]
Cc1nn2c(c1-c1ccccc1C(C)C)N(C(=O)c1cccc(C#N)c1)CCC2 44.7 µM [inhibitor, single point]
O=C(C1CCCCN1Cc1ccc(-c2cccs2)cc1)N1CCN(Cc2ccccc2)CC1 (configuration not stated) 39.8 µM [inhibitor, single point]
COc1ccc(CCN2C(=O)c3[nH]nc(-c4ccccc4O)c3C2c2ccc(O)c(OC)c2)cc1 (configuration not stated) 39.8 µM [inhibitor, single point]
Cc1noc(C)c1-c1cc2cc(C(C)C)oc2c(N2CCN(C)CC2)n1 56.2 µM [inhibitor, single point]
Cc1noc(C)c1[S+](=O)([O-])N1CCn2c(nnc2C2CCCNC2)C1 (configuration not stated) 2 µM [inhibitor, partial curve, poor fit]
CC(C)=CC(=O)N[C@H]1C[C@@H](C(=O)N[C@H](Cc2ccccc2)C(N)=O)N(C(=O)C=C(C)C)C1 7.08 µM [inhibitor, partial curve]
O=C(NCc1ccccc1)c1ccccc1OC1CN(Cc2cccc(F)c2)C1 17.8 µM [inhibitor, single point]

Activity change, negative = inhibition, inactive:
CCCS(=O)(=O)N1CCC(N2CC(OC)C23CCOCC3)CC1 (configuration not stated) 3.8%
Cn1cccc1C(=O)N1CC(Oc2ccc(-c3nc(-c4ccccc4)no3)cc2)C1 17.7%
CCCC(=O)N1CCC(Oc2cnc3c(ccn3-c3cncnc3)c2)CC1 1.31% [at 87.6 µM]
COc1ccc(CCC(=O)N2CCN(C(=O)c3nnn4c3COC(c3ccccc3)C4)CC2)cc1 (configuration not stated) 38.3%
CCNC(=O)Cc1c[nH]c2ncc(-c3cccnc3OC)cc12 12.6% [at 87.6 µM]
O=C(NC1CCN(Cc2ccccc2)CC1)C1CC(=O)N(c2n[nH]c3cccc(F)c23)C1 (configuration not stated) -14.3%
CN(C)Cc1cccc(-c2cc3c(ccn3Cc3ccncc3)c(N3CCOCC3)n2)c1 -4.99% [at 87.6 µM]
COc1ccccc1Cn1c(=O)c(C(=O)NCCc2ccc(F)cc2)nc2cccnc21 -18.1%
CN1CCN(CCNC(=O)CCc2ccc3c(c2)CN(S(C)(=O)=O)CCO3)CC1 -23.1%
O=C(Cn1ccn2nc(-c3ccc(F)cc3)c(CO)c2c1=O)NCc1ccccc1Br -15.7%
O=C([C@@H]1C[C@H](Oc2ccccc2)CN1C(=O)c1ccsc1)N1CCOCC1 3.16%
COc1cccc(-c2cn3cc(C(=O)N4CCCCC4)nc3s2)c1 -29.6%
Fc1ccc(-c2cnc3n2C[C@H](CNC2CCOCC2)OC3)cc1 -10.8% [at 87.6 µM]
Cc1cccc(C)c1-c1nnc2ccc(C(=O)NCC3CC3)cn12 80.9% [at 87.6 µM]
COc1cccc(C(=O)N2CCC(c3nn(-c4ccc(Cl)cc4)c(=O)[nH]3)CC2)c1 -21.4%
